According to PubChem BioAssay AID1240 (Sanford-Burnham Center for Chemical Genomics, 2008):
In all, about 50,000 compounds went through this assay and about 800 (1.6%) showed an effect of 50% or more. Some of the results follow.

The compounds below were run against Bcl-2-like protein 10 (Homo sapiens) (UniProt Q9HD36) (assay: Phenotype converters, Bcl-B/TR3 peptide binding displacement, primary biochemical FP (AID 1240;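 note: 0% = Bcl-B with tracer peptide and DMSO and 100% = tracer peptide lacking Bcl-B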)). Conditions: GST-Bcl-B / FITC-TR3 peptide fluorescence polarization; stronger effect = higher value; compound at 3.75 mg/L.
Sequence of UniProt Q9HD36 (Q9HD36 whole entry, looked up): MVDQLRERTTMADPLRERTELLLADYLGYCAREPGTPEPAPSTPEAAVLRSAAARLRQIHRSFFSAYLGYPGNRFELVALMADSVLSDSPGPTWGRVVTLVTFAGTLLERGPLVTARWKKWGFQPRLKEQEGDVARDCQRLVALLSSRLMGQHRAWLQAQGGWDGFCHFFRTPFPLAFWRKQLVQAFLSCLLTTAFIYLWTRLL

| SMILES | displacement [%] |
| --- | --- |
| Cc1cccc(NC(=O)COc2cc(C)c(Cl)c(C)c2)c1C | -6.9 |
| COc1cc(N/N=C/c2ccc(Br)cc2)ncn1 | -7.7 |
| O=C(CN(Cc1ccccc1)S(=O)(=O)c1ccc(Br)cc1)N/N=C/c1c(O)ccc2ccccc12 | 9 |
| c1ccc2c(c1)ccc1nnc(-c3ccc4c(c3)OCO4)n12 | 7.3 |
| N#Cc1c(N)nc2c(c1-c1ccc(F)cc1)CCCCC2 | 3.8 |
| CCN(CC)c1ccc(/C=C(\C#N)c2nn(CCO)c(N)c2C#N)cc1 | 68.2 |
| O=C(O/C(=C/c1nccn1Cc1ccc(Cl)cc1)c1ccccc1)c1ccccc1 | -1.2 |
| COc1ccc(C2SCC(=O)N2c2ccc(Cl)cc2)cc1 (stereo not given) | -2.1 |
| CCN1C(=O)/C(=C\c2ccc(C)cc2)C(C(=O)OC)=C1C | 86.2 |
| COc1ccc(N2CC(C(=O)N/N=C/c3ccc(OC)c(OC)c3)CC2=O)cc1 (stereo not given) | 0.8 |
| Cc1ccc(-n2cnc3c(sc4nccc(N(C)C)c43)c2=O)cc1 | -9.5 |
| O=C(NCC1CCCO1)c1ccc(I)cc1 (stereo not given) | 8.5 |
| COC(=O)C1=C(C)N(CC2CCCO2)C(=O)/C1=C\c1ccccc1OC (stereo not given) | 5.6 |
| CCc1cc2c(=O)n(-c3ccccc3)c(SCC(=O)c3ccc(Cl)cc3)nc2s1 | 2.8 |
| Cc1nc(N(CCC(N)=O)CCC(N)=O)sc1C | 5.9 |
| Cc1cc(C)c(S(=O)(=O)Nc2ccc(Cl)c3cccnc23)c(C)c1 | 4.4 |
| CC(C)c1ccc(NC(=O)C(=O)NCc2ccco2)cc1 | -10.4 |
| Cc1cccc(Cl)c1NC(=O)C1CC(=O)N(c2ccc(F)cc2)C1 (stereo not given) | 6.4 |
| O=C1C2C(C(=O)N1c1ccc(Br)cc1)N1CCCN1C2c1cccc([N+](=O)[O-])c1 (stereo not given) | -3.8 |
| Cc1cc(N2CCOCC2)c2c(c1)c1ccccc1n2C | 11.4 |
| Cc1ccc(N2C(=O)c3ccccc3NC2c2ccccc2)cc1Cl (stereo not given) | 5.8 |
| C=C(C)c1cccc(C(C)(C)NC(=O)NCCc2ccc(S(N)(=O)=O)cc2)c1 | 10.6 |

| SMILES | displacement [%] |
| --- | --- |
| COCCOC(=O)C1=C(C)NC(=O)CC1c1cccc(Cl)c1Cl (stereo not given) | -7.8 |
| O=C1Oc2ccc(Cl)cc2C1c1ccccc1 (stereo not given) | 11.6 |
| COc1ccc(C=Nc2ccc(C)c(F)c2)cc1OC | -5.3 |
| COCCNC(=O)c1cccc([N+](=O)[O-])c1C | 2 |
| COc1ccccc1CC1CC(=O)N(c2ccc(Cl)c(Cl)c2)C1=O (stereo not given) | 14.2 |
| CCCOc1ccc(/C=N/Nc2nc(C)cc(-c3ccccc3)n2)c(O)c1 | -3.8 |
| CCCCNC(=O)c1c(O)c2ccccc2n(C)c1=O | -2.6 |
| O=C(Nc1cc(-c2ccc(F)cc2)[nH]n1)c1ccc(Br)cc1 | 13.7 |
| O=C(N/N=C/c1ccncc1)c1ccco1 | 2.5 |
| Cc1cc(C)n(C(=O)CN2C(=O)c3ccccc3C2=O)n1 | 4.4 |
| O=C1/C(=C\c2cc3c(cc2[N+](=O)[O-])OCO3)SC(=S)N1c1ccccc1 | 7.1 |
| CCCCCOC(=O)C1=C(C)NC2=C(C(=O)CC(C)(C)C2)C1c1cccc(Cl)c1 (stereo not given) | 3.7 |
| COc1ccc(S(=O)(=O)n2nnc3ccccc32)cc1 | 3.4 |
| CC1CCc2c(sc(NC(=O)CCC(=O)O)c2C(=O)Nc2ccc(Cl)cc2)C1 (stereo not given) | -1.4 |
| Cc1ccc(Cl)c(OCCCCN2CCCCC2)c1 | -1.7 |
| Cc1ccc(C)c(OCC(=O)N/N=C/C=N/NC(=O)COc2cc(C)ccc2C)c1 | 0.1 |
| COc1ccc(N2C(=O)NC(=O)/C(=C/c3ccc(OCc4ccccc4F)c(OC)c3)C2=O)cc1 | -39.4 |
| Cc1cccc(OCC(=O)NCCCN(C)C)c1 | 11.4 |
| COc1cccc(CN2CCN(C(=O)c3ccc(F)cc3)CC2)c1OC | -10.8 |
| Cc1ccc(-c2csc(NC(=O)CCCC(=O)O)c2C(=O)OC(C)C)cc1 | -9.2 |
| Cc1nc2cc(N=Cc3c[nH]c4ccccc34)ccc2n1C | 4.8 |
| c1ccc(Cn2c(CSc3nc4ccccc4o3)nc3ccccc32)cc1 | 6.8 |

| SMILES | displacement [%] |
| --- | --- |
| CCOC(=O)c1c(NC(=O)/C=C/c2ccccc2)sc2c1CC(C)(C)OC2 | 13.8 |
| COC(=O)c1cccc(NC(=O)c2ccc(C)cc2)c1 | 16.1 |
| COc1ccc(Br)cc1C(=O)Nc1ccc2oc(-c3ccccc3F)nc2c1 | 13.4 |
| CC(=O)Nc1c(C)ccc2c1C(C)CC21CCCC1 (stereo not given) | -11.9 |
| CCn1cc(C(=O)O)c(=O)c2cc(-c3ccc([N+](=O)[O-])o3)c(Cl)cc21 | 33.9 |
| COc1ccc(C(=O)N2CCN(c3ccc([N+](=O)[O-])cc3)CC2)cc1Br | 13.9 |
| COc1ccc([N+](=O)[O-])cc1NCc1ccco1 | 8.5 |
| COc1ccc(C(=O)/C=C/Nc2ccccc2O)cc1 | 7.8 |
| CSCCOC(=O)C1=C(C)NC(=O)NC1c1cccc([N+](=O)[O-])c1 (stereo not given) | 8.4 |
| Clc1cccc(CN2CCN(Cc3cccnc3)CC2)c1 | -6.5 |
| O=C(Cc1ccccc1)Nc1ccc([N+](=O)[O-])cc1Cl | 4.8 |
| O=C(CSc1nnc(-c2ccco2)n1-c1ccccc1)NC(c1ccccc1)c1ccccc1 | -16.2 |
| O=C(N/N=C/c1ccc(OC(=O)c2ccco2)cc1)c1ccncc1 | 9.3 |
| O=C1C2C3CCC(O3)C2C(=O)N1c1ccccc1 (stereo not given) | 2.7 |
| CCOc1ccc2nc(SCC(=O)c3ccc(F)cc3)sc2c1 | -14.5 |
| CCOc1ccc2nc(SC3CC(=O)N(c4ccc(C)cc4C)C3=O)sc2c1 (stereo not given) | -8.7 |
| COc1ccc(N(C(=O)c2ccccc2F)C2C=CS(=O)(=O)C2)cc1 (stereo not given) | -3.6 |
| O=C1CCCC2=C1C(c1ccc(Cl)cc1Cl)Nc1ccc(C(=O)c3ccccc3)cc1N2 (stereo not given) | 0.1 |
| Cc1cn(S(=O)(=O)c2cc(Cl)ccc2Cl)cn1 | 13.8 |
| Cc1cc(C)c(NC(=O)c2cccc(I)c2)c(C)c1 | -5.7 |
| COc1ccc(C(=O)Nc2ccc(OC)cc2[N+](=O)[O-])c(OC)c1 | 29.1 |
| CCN1C(=O)/C(=C\c2cc(Cl)c(O)c(Cl)c2)SC1=S | -58.1 |

| SMILES | displacement [%] |
| --- | --- |
| O=[N+]([O-])c1ccc(N/N=C(\c2ccccc2)c2ccncc2)c([N+](=O)[O-])c1 | 1.8 |
| CCOC(=O)C(=CNc1ccc(OC)c(OC)c1)C(=O)OCC | 6.6 |
| COc1cc(C(=O)N/C(=C/c2cccc([N+](=O)[O-])c2)C(=O)NCC(=O)O)cc(OC)c1OC | -4.5 |
| Cc1cccc(C(=O)Nc2ccc(C(=O)/C=C/c3cccs3)cc2)c1 | -0.3 |
| O=C(Nc1ccc(Cl)c(Cl)c1)c1ccc([N+](=O)[O-])o1 | -8 |
| CCC(CC)C(=O)Nc1cc(OC)ccc1OC | 12.1 |
| COc1cc(C2C(C(=O)OCc3ccccc3)=C(C)NC3=C2C(=O)CC(C)(C)C3)ccc1OC(C)=O (stereo not given) | -5.1 |
| Cc1nnc(NC(=O)C(Sc2ccccc2)c2ccccc2)s1 (stereo not given) | 3.8 |
| O=C(Nc1ccc(Cc2ccc(NC(=O)Nc3ccccc3O)cc2)cc1)Nc1ccccc1O | 10.2 |
| CCCOc1cccc(C(=O)Nc2ccc(Br)cc2C(=O)O)c1 | 8.3 |
| N#Cc1sc2nc(C3CC3)cc(-c3ccccc3)c2c1N | -7.5 |
| Cc1cc(NC(=O)C(C)C)ccc1NC(=O)c1cccs1 | 3.2 |
| COc1ccc2oc(=O)c(C(=O)Nc3cccc(Cl)c3C)cc2c1 | 16.4 |
| O=C(O)CCCNS(=O)(=O)c1ccc(Br)cc1 | 28.6 |
| O=C(Oc1ccc2c(c1)oc(=O)c1ccccc12)c1ccccc1Cl | 1.4 |
| COCCNC(=O)/C=C/c1ccc2c(c1)OCO2 | 14.1 |
| Cc1cc(I)ccc1N/C=C/[N+](=O)[O-] | 11.2 |
| O=C(Nc1cc(Cl)cc(Cl)c1)Nc1ccc(Cl)c(Cl)c1 | 7.3 |
| C=CCN1C(=O)/C(=C\c2ccc(-c3ccc(F)c(Cl)c3)o2)SC1=S | 39.4 |
| O=C(Nc1ccccc1C(=O)N/N=C/c1ccc(F)cc1)c1ccccc1Br | -0.5 |
| COc1ccc(N(CC(=O)NCCc2ccc(F)cc2)S(=O)(=O)c2ccccc2)c(OC)c1 | -5.4 |
| O=C(NCC1CCCO1)c1cnn2c(C(F)(F)F)cc(-c3ccc4c(c3)OCO4)nc12 (stereo not given) | 24.9 |

| SMILES | displacement [%] |
| --- | --- |
| COc1ccc(C2C(C(=O)OC3CCCCCC3)=C(C)NC3=C2C(=O)CC(C)(C)C3)c(OC)c1OC (stereo not given) | -2 |
| Cc1ccc(Nc2nc(N3CCOCC3)nc(N3CCOCC3)n2)cc1 | 5.9 |
| CC(=O)Nc1ccc2[nH]c(C)cc(=O)c2c1 | 5.4 |
| COc1ccc(C(N)=O)cc1N=NC1=C(O)CC(C)(C)CC1=O | -8.5 |
| CCCCOc1ccccc1NC(=O)c1cc(OC)c(OC)c(OC)c1 | 18 |
| Clc1ccc(CNc2ncn[nH]2)cc1 | 11.6 |
| CC(=O)Nc1ccc(NC(=O)c2ccco2)c(C)c1 | -14 |
| COc1cc(/C=c2/sc3nc4c(Br)c(C)c(C)cc4n3c2=O)ccc1OCC(=O)O | 15.9 |
| N/C(=N\OC(=O)/C=C/c1ccccc1)c1ccccn1 | -0.2 |
| CCOc1ccc(/C=N/Nc2nc(N3CCOCC3)nc(N3CCOCC3)n2)cc1OC | 1.9 |
| O=C(Nc1cccc(Cl)c1)Nc1nnc(COc2ccc(F)cc2)s1 | 7.9 |
| Cc1cccc(-c2nc3cc(NC(=O)c4cccc(Cl)c4Cl)ccc3o2)c1 | 10.9 |
| Cc1cc2c(nc3s/c(=C\c4ccc(-c5ccc(F)cc5)o4)c(=O)n32)c(Br)c1C | -9 |
| C=CCSc1nc2ccccc2n1C(=O)C1C(C=C(Cl)Cl)C1(C)C (stereo not given) | 7.1 |
| O=C(Nc1ccccc1C(=O)N1CCCC1)c1ccc(Cl)cc1 | -3.6 |
| O=c1[nH]c(-c2ccc(-c3ccc([N+](=O)[O-])cc3)o2)nc2sc3c(c12)CCCC3 | 18.8 |
| COCCN1C(=O)/C(=C/c2ccc(O)c(OC)c2)SC1=S | -4.4 |
| COc1ccc2[nH]c3c(c2c1)CCn1c-3nc2scc(-c3ccccc3)c2c1=O | 0.2 |
| CC(NC(=O)c1ccc(Br)cc1)c1ccccc1 (stereo not given) | 6.5 |
| CC1CC(C)(C)NCCNC(C)CC(C)(C)NCCN1 (stereo not given) | 5.2 |
| Cc1cc(-c2nnc(-c3ccc4c(c3)OCO4)o2)ccc1[N+](=O)[O-] | 19.4 |
| Cc1c(NC(=S)NC(=O)/C=C/c2ccccc2)cccc1-c1nc2ncccc2o1 | 2.1 |
